# Measurements published in the RNAGym collection of RNA variant scans (doi:10.1093/nar/gkz1192).
# The source gives no read counts; variants with many changes may rest on few reads.
# B1: CPEB3 Ribozyme (parent)
# chain: UAACAGGGGGCCACAGCAGAAGCGUUCACGUCGCAGCCCCUGUCAGAUUCUGGUGAAUCUGCGAAUUCUGCUGUAUAUCUC
# Variants of: B1
# Assay: self-cleavage, relative activity (ratio to wild type); higher = more cleavage; in vitro, sequencing
# Procedure, shortened: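 CPEB3 self-cleaving ribozyme mutant libraries were made by rounds of error-prone PCR, barcoded, and transcribed in vitro with T7 RNA polymerase for 5 hours at 37°C. Cleavage occurred during transcription and a 15 min DNase I step before EDTA stop. RNAs were reverse transcribed with template switching and Illumina-sequenced, with DNA sequencing mapping barcodes to variants. Relative activity is the variant's cleaved/total read fraction divided by wild type's (minimum 5 reads), averaged across three batches.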
row,Variant,self-cleavage
1,C11A A18G U31C U54C,0.07
2,C11A G33A U43A,0.32
3,G10A A20G U31C A45U A57G U66C A75G,0.02
4,C11G A65G U80A,0.09
5,G10C A18G A45G U67C,0.19
6,C11G C27U A45G U72A,0.07
7,G10U U26A U41A C62U U67C,0.1
8,G9U U41G A56G A65U U78C,0.24
9,G10A A13C U49C G73U,0.47
10,G10C A18U A21U U31C U49C,0.11
11,G10U C29U U41C,0.08
12,G10U A57G A64G U69C,0.05
13,C11A A15C A45C,0.06
14,C11A U54C U80C,0.14
15,G10A G24U U25C U26A U41C,0.17
16,C11G A13C G30A,0.36
17,C11A A28U C81G,0.13
18,G10A G19U U26A A45C G63A,0.18
19,C11A A45G U78A,0.38
20,C11A C32U C38G,0.05
21,G10C G24A G36C G52A A57G U58C U72C,0.04
22,C11A U26C C50G U69C,0.09
23,G10A A28G G63A A65G,0.04
24,C11G A28U U41A U69A,0.05

row,Variant,self-cleavage
1,G10A A21U U51C,0.07
2,C11A A18C U26A,0.09
3,G10A A15G A21G U54A,0.41
4,C11G A21G U49C A57G U69C,0.12
5,G9U U25C U26C A28U U69C U78C,0.04
6,G10A A20G A21G G24A C37A G42A U78C,0.04
7,G9U G24A C39G U49C,0.04
8,G10A U26C U43C U67C U69A,0.05
9,G10A U25C U26C U51C U72C,0.07
10,C11G A20G A28C C40U U67C,0.18
11,C11G A20G U69A,0.07
12,C11A A15C C38A U48C A77U,0.04
13,C11G A56U U72C,0.18
14,G10U A21G C50U U67A,0.17
15,G10A A15U U31A A77G,0.05
16,G10A U31G U51C,0.31
17,G10C A57G U72A U76C,0.13
18,G10C A21U A56U U72C,0.1
19,G10A A21G U48A U69C U72C U78C,0.1
20,G10C A20G G22U G63U U66C,0.08
21,G10A A18G U58C U66A,0.05
22,G10C U26A A45G U49C,0.24
23,G10U A18C U31C U49C U60C,0.13
24,C11G A20G U76A,0.26

row,Variant,self-cleavage
1,G10C A18G U25C U67C U74C,0.12
2,C11A A18G U26A U54G A56U A77U,0.05
3,G10A A20G U43A G61A,0.05
4,G10A A13G G36A U48C,0.14
5,G9U G10A A13U C40U,0.09
6,C11A U31G U48C U69A U72A,0.13
7,C11A U66C A75U,0.06
8,G10A U26A A64U,0.07
9,G10U A56G A77G U80A,0.05
10,G10A A18G A35G C59U U67A U74A,0.12
11,G10C A21G U66C U76C,0.06
12,G10A U31G G73A,0.07
13,G10C A13G A18U A28U C40U U80C,0.26
14,G10A A15G U41C G61A U72A,0.06
15,C11G A20U U31G U43C,0.31
16,G10A A21G U66A U69C,0.3
17,G9U C50U U67C,0.02
18,G9U U31C A56G,0.1
19,C11G A35C U74A,0.15
20,C11A A28U U43A C59G,0.06
21,G9U U25C U54C U60C U80A,0.06
22,G10U G16C U43A A64U U69C,0.07
23,G10A C14U U48C A65G U72C,0.05
24,G9U C12U U48A A75U,0.14

row,Variant,self-cleavage
1,C11G A20U C34G U41C G55A,0.05
2,C11G U25C U41A A45U A65G U72A U78C,0.02
3,C11G U25A U26C A64C,0.12
4,G10A A13U A20G U43A A45U U74C,0.05
5,G10A U41C U48C,0.06
6,G10C U26A U54C U60A,0.06
7,G10C A15G U25C C32A U43C A77G U80C,0.04
8,G10C A15G U25C,0.05
9,G10C A18U U25A A77U,0.14
10,G9U U60C A77C,0.18
11,C11A A21G U31A C34G,0.04
12,C11A C32U A56G U60A U67C,0.05
13,G9U C17U G19U C39U A45U U66C U72C,0.04
14,G10U A15G A45U U48C A56G U69A U74A,0.05
15,G9U G36C A45G U54C U78G,0.03
16,G10A A28G A35G U49A,0.12
17,C11A A13G U31A C44G A57G U67C A77U,0.02
18,G10U U26A U72C C81U,0.05
19,C11G A13U A28U A45G U72C,0.61
20,C11G A56G U66A,0.08
21,G9U G19C C40G A77G,0.06
22,G10A G36A A56G U80C,0.06
23,G10A U43A U72A U74C U80A,0.11
24,G10C A18G U25C A35G U43C U48A U78C,0.21

row,Variant,self-cleavage
1,C11A A15G U80C,0.32
2,C11A A21G C23U A28G A35G G36C,0.03
3,G9U U43C A45G U51C U69A,0.05
4,G10C U60C A64G,0.11
5,G10U C11U A20U,0.14
6,G9U U25C C32U U49C U60C U76C,0.05
7,G10U G24A U26C U43C A77G,0.11
8,G10C U58A G63C U67C,0.06
9,C11A U31G U67A,0.07
10,C11G G42A U69A,0.18
11,C11G U31C A35U A65G U78A,0.04
12,G10C A45G U49C,0.27
13,G10A U54C U69C U74C,0.07
14,C11A A21U G30A U54G U60C,0.05
15,C11G A20U A28U U43C U49C U58C,0.14
16,G10U A21G G36C U54A G63A U66C U69A,0.04
17,G10A A13U A18G C29U U58C,0.1
18,C11A G30U A56G,0.08
19,G9U C34U A35G U60G,0.06
20,C11G U26C U49C,0.07
21,G10U A28G C32U A45C,0.05
22,G10A A28G G30U G61A,0.08
23,G10A C17U U72C,0.21
24,G9U U25C U67C,0.11

row,Variant,self-cleavage
1,G10U U31C A57G C71G,0.06
2,G10A A21G U78C,0.06
3,G10C U41A U48G,0.05
4,C11G G30A U72G,0.08
5,C11A U26A U31A U60C U66C U76C,0.07
6,G10A U41A G63U,0.2
7,G10A A13G U25G U58C A65U U72A,0.05
8,G9U G33C U43C G52U U54C U60A,0.08
9,G10A A47U A57G U76C,0.12
10,C11A U48C G63U U67A,0.04
11,G10A A45C A57G C59A,0.06
12,G9U C23A A45G U69C U78C,0.08
13,G9U U31C U41C A47C U49C A64C,0.16
14,C11G C40A U51A A57G A65G U72A,0.03
15,C11G U31A A35G U66A U69C,0.06
16,G10A A64G U78C,0.14
17,G10A A57G C62A,0.05
18,G10U A13G A20U G61C U66C U72C,0.06
19,G10A C62G U78C,0.12
20,C11G A20U U51C,0.37
21,C11G G24C U60C U67C U69C,0.16
22,C11G C14A G19A A20G C27A A28U C38U,0.04
23,G10C U43A A64G,0.16
24,C11G C39G U41C,0.57

row,Variant,self-cleavage
1,C11G A13U A21G U31C A35G A45C U51A,0.04
2,G10U U41C G63U U69C U74A,0.05
3,C11A A57G A65G U72C,0.03
4,G10C A15U A28G G33A U76G,0.09
5,G10U A28G A65G U69A U72G U74A U80A,0.04
6,G9U U25C U48C U51C,0.04
7,G10C C17A G46A G70A A75G,0.11
8,C11A A13G U31A,0.41
9,C11G A18G U49C U58C U76A,0.03
10,G10A A13U U41A U49C U78A,0.06
11,G10A U51C G61C U72A,0.07
12,G9U C12U C38U U78C,0.52
13,C11G G33A A45G A65G U69C U74C,0.05
14,G9U G30U G63C,0.11
15,G10A U25C U43A A45G U67A U69C U78C,0.05
16,G10A A28U U54C,0.06
17,C11G A28U A45C C62U A65G U72C,0.06
18,C11G G22C U43C U49C A64U U67C,0.06
19,G10C A15U A18G U54C,0.22
20,G10A A18U U41A U51C,0.05
21,G10A A18G U26C C44U C62U U76A,0.15
22,G10A U31C A45C U60A A64G U72A,0.16
23,G10A A20G U25A U58C A65G,0.03
